# Data from the supplement of paper PMC8728848.
# The entries come from a sample that favours the strongest signals as a whole.
# B1: SBA (Glycine max), P05046 (protein)
# chain: MATSKLKTQNVVVSLSLTLTLVLVLLTSKANSAETVSFSWNKFVPKQPNMILQGDAIVTSSGKLQLNKVDENGTPKPSSLGRALYSTPIHIWDKETGSVASFAASFNFTFYAPDTKRLADGLAFFLAPIDTKPQTHAGYLGLFNENESGDQVVAVEFDTFRNSWDPPNPHIGINVNSIRSIKTTSWDLANNKVAKVLITYDASTSLLVASLVYPSQRTSNILSDVVDLKTSLPEWVRIGFSAATGLDIPGESHDVLSWSFASNLPHASSNIDPLDLTSFVLHEAI
# Experiments:
# Test in all cases: glycan array binding signal (z-score within array); higher = stronger binding
# Settings in all cases: glycan notation: IUPAC condensed, linker removed
# Fuc(a1-2)Gal(b1-3)GalNAc = target: Fuc(a1-2)Gal(b1-3)GalNAc
# Outline: (§1)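 Glycan array binding is given as a within-array Z-score, which can be read as non-binding when negative. The arrays, 3228 of them, came from the Consortium for Functional Glycomics database and were retained only where the protein sequence was available. Z-scores were averaged across arrays of the same protein sequence at different concentrations or buffers and across linkers.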
# [1] = target: Fuc(a1-2)Gal(b1-3)GalNAc(b1-3)Gal
# Outline: as §1
# [2] = target: Fuc(a1-2)Gal(b1-3)GlcNAc(b1-3)[Fuc(a1-2)Gal(b1-3)GlcNAc(b1-6)]GalNAc
# Outline: as §1
# [3] = target: Fuc(a1-2)[Gal(a1-3)]Gal(b1-3)GalNAc(b1-3)Gal(a1-4)Gal(b1-4)Glc
# Outline: as §1
# [4] = target: Fuc(a1-2)[GalNAc(a1-3)]Gal(b1-3)GalNAc(b1-3)Gal(a1-4)Gal(b1-4)Glc
# Outline: as §1
# [5] = target: Fuc(a1-2)[GalNAc(a1-3)]Gal(b1-4)GlcNAc(b1-2)Man(a1-3)[Fuc(a1-2)[GalNAc(a1-3)]Gal(b1-4)GlcNAc(b1-2)Man(a1-6)]Man(b1-4)GlcNAc(b1-4)[Fuc(a1-6)]GlcNAc
# Outline: as §1
# [6] = target: Fuc(a1-2)[GalNAc(a1-3)]Gal(b1-4)GlcNAc(b1-3)Gal(b1-4)GlcNAc
# Outline: as §1
# [7] = target: Fuc(a1-2)[GalNAc(a1-4)]Gal(b1-4)GlcNAc
# Outline: as §1
# [8] = target: Fuc(a1-3)[Gal(b1-4)]GlcNAc(b1-3)Gal(b1-3)[Fuc(a1-4)]GlcNAc
# Outline: as §1
# Gal(a1-2)Gal = target: Gal(a1-2)Gal
# Outline: as §1
# [9] = target: Gal(a1-3)Gal(b1-3)GlcNAc(b1-2)Man
# Outline: as §1
# Gal(a1-3)Gal(b1-4)GlcNAc = target: Gal(a1-3)Gal(b1-4)GlcNAc
# Outline: as §1
# [10] = target: Gal(a1-4)Gal(b1-3)GlcNAc(b1-2)Man(a1-3)[Gal(a1-4)Gal(b1-3)GlcNAc(b1-2)Man(a1-6)]Man(b1-4)GlcNAc(b1-4)GlcNAc
# Outline: as §1
# Gal(a1-4)GlcNAc = target: Gal(a1-4)GlcNAc
# Outline: as §1
# Gal(b1-3)GalNAc(b1-3)Gal = target: Gal(b1-3)GalNAc(b1-3)Gal
# Outline: as §1
# [11] = target: Gal(b1-3)GlcNAc(b1-2)[Gal(b1-3)GlcNAc(b1-6)]Man(a1-6)[Gal(b1-3)GlcNAc(b1-2)Man(a1-3)]Man(b1-4)GlcNAc(b1-4)GlcNAc
# Outline: as §1
# [12] = target: Gal(b1-3)GlcNAc(b1-3)Gal(b1-4)[Fuc(a1-3)]GlcNAc
# Outline: as §1
# [13] = target: Gal(b1-4)GlcNAc(b1-2)Man(a1-3)Man(b1-4)GlcNAc(b1-4)GlcNAc
# Outline: as §1
# [14] = target: Gal(b1-4)GlcNAc(b1-2)Man(a1-3)[Man(a1-6)]Man(b1-4)GlcNAc(b1-4)GlcNAc
# Outline: as §1
# [15] = target: Gal(b1-4)GlcNAc(b1-2)Man(a1-6)[GlcNAc(b1-2)Man(a1-3)]Man(b1-4)GlcNAc(b1-4)GlcNAc
# Outline: as §1
# [16] = target: Gal(b1-4)GlcNAc(b1-2)[Gal(b1-4)GlcNAc(b1-4)]Man(a1-3)[GlcNAc(b1-4)][Gal(b1-4)GlcNAc(b1-2)Man(a1-6)]Man(b1-4)GlcNAc(b1-4)GlcNAc
# Outline: as §1
# [17] = target: Gal(b1-4)GlcNAc(b1-3)Gal(b1-4)GlcNAc(b1-3)Gal(b1-4)GlcNAc(b1-2)Man(a1-3)[Gal(b1-4)GlcNAc(b1-3)Gal(b1-4)GlcNAc(b1-3)Gal(b1-4)GlcNAc(b1-2)Man(a1-6)]Man(b1-4)GlcNAc(b1-4)[Fuc(a1-6)]GlcNAc
# Outline: as §1
# [18] = target: Gal(b1-4)GlcNAc(b1-3)Gal(b1-4)GlcNAc(b1-3)Gal(b1-4)GlcNAc(b1-3)Gal(b1-4)GlcNAc(b1-3)Gal(b1-4)GlcNAc(b1-3)Gal(b1-4)GlcNAc(b1-2)Man(a1-3)[Gal(b1-4)GlcNAc(b1-3)Gal(b1-4)GlcNAc(b1-3)Gal(b1-4)GlcNAc(b1-3)Gal(b1-4)GlcNAc(b1-3)Gal(b1-4)GlcNAc(b1-3)Gal(b1-4)GlcNAc(b1-2)Man(a1-6)]Man(b1-4)GlcNAc(b1-4)GlcNAc
# Outline: as §1
# [19] = target: Gal(b1-4)GlcNAc(b1-3)Gal(b1-4)GlcNAc(b1-3)[Gal(b1-4)GlcNAc(b1-3)Gal(b1-4)GlcNAc(b1-6)]GalNAc
# Outline: as §1
# GalNAc(a1-3)Gal = target: GalNAc(a1-3)Gal
# Outline: as §1
# GalNAc(a1-3)GalNAc = target: GalNAc(a1-3)GalNAc
# Outline: as §1
# [20] = target: GalNAc(a1-3)GalNAc(a1-3)Gal(a1-4)Gal(b1-4)GlcNAc
# Outline: as §1
# [21] = target: GalNAc(a1-3)GalNAc(b1-3)Gal(a1-4)Gal(b1-4)Glc
# Outline: as §1
# GalNAc(b1-4)GlcNAc = target: GalNAc(b1-4)GlcNAc
# Outline: as §1
# [22] = target: GalNAc(b1-4)GlcNAc(b1-2)Man
# Outline: as §1
# [23] = target: GalNAc(b1-4)GlcNAc(b1-2)Man(a1-3)[GalNAc(b1-4)GlcNAc(b1-2)Man(a1-6)]Man(b1-4)GlcNAc(b1-4)GlcNAc
# Outline: as §1
# [24] = target: GalNAc(b1-4)GlcNAc(b1-3)GalNAc(b1-4)GlcNAc
# Outline: as §1
# GalNAc(b1-4)GlcNAc6S = target: GalNAc(b1-4)GlcNAc6S
# Outline: as §1
# [25] = target: GlcNAc(b1-2)[GlcNAc(b1-4)]Man(a1-3)[GlcNAc(b1-4)][GlcNAc(b1-2)[GlcNAc(b1-6)]Man(a1-6)]Man(b1-4)GlcNAc(b1-4)GlcNAc
# Outline: as §1
# [26] = target: GlcNAc(b1-3)Gal(b1-4)GlcNAc(b1-3)Gal(b1-4)GlcNAc(b1-2)Man(a1-3)[GlcNAc(b1-3)Gal(b1-4)GlcNAc(b1-3)Gal(b1-4)GlcNAc(b1-2)Man(a1-6)]Man(b1-4)GlcNAc(b1-4)GlcNAc
# Outline: as §1
# [27] = target: GlcNAc(b1-3)Gal(b1-4)GlcNAc(b1-3)Gal(b1-4)GlcNAc(b1-2)[GlcNAc(b1-3)Gal(b1-4)GlcNAc(b1-3)Gal(b1-4)GlcNAc(b1-6)]Man(a1-6)[GlcNAc(b1-3)Gal(b1-4)GlcNAc(b1-3)Gal(b1-4)GlcNAc(b1-2)Man(a1-3)]Man(b1-4)GlcNAc(b1-4)[Fuc(a1-6)]GlcNAc
# Outline: as §1
# [28] = target: GlcNAc(b1-3)[GlcNAc(b1-6)]GlcNAc(b1-4)GlcNAc
# Outline: as §1
# [29] = target: GlcNAc(b1-4)GlcNAc(b1-4)GlcNAc(b1-4)GlcNAc(b1-4)GlcNAc
# Outline: as §1
# [30] = target: Man(a1-2)Man(a1-3)[Man(a1-2)Man(a1-6)]Man(a1-6)[Man(a1-2)Man(a1-2)Man(a1-3)]Man(b1-4)GlcNAc(b1-4)GlcNAc
# Outline: as §1
# [31] = target: Neu5Ac(a2-3)Gal(b1-3)GlcNAc(b1-2)Man(a1-3)[Neu5Ac(a2-3)Gal(b1-3)GlcNAc(b1-2)Man(a1-6)]Man(b1-4)GlcNAc(b1-4)GlcNAc
# Outline: as §1
# [32] = target: Neu5Ac(a2-3)Gal(b1-3)[Fuc(a1-4)]GlcNAc
# Outline: as §1
# [33] = target: Neu5Ac(a2-3)Gal(b1-3)[Fuc(a1-4)]GlcNAc(b1-3)Gal(b1-4)[Fuc(a1-3)]GlcNAc
# Outline: as §1
# [34] = target: Neu5Ac(a2-3)Gal(b1-3)[Neu5Ac(a2-6)]GalNAc
# Outline: as §1
# [35] = target: Neu5Ac(a2-3)Gal(b1-4)GlcNAc(b1-2)Man(a1-3)[Neu5Ac(a2-3)Gal(b1-4)GlcNAc(b1-2)Man(a1-6)]Man(b1-4)GlcNAc(b1-4)[Fuc(a1-6)]GlcNAc
# Outline: as §1
# [36] = target: Neu5Ac(a2-3)Gal(b1-4)GlcNAc(b1-3)Gal
# Outline: as §1
# [37] = target: Neu5Ac(a2-3)Gal(b1-4)GlcNAc(b1-3)Gal(b1-3)GlcNAc
# Outline: as §1
# [38] = target: Neu5Ac(a2-6)Gal(b1-4)GlcNAc(b1-2)Man(a1-3)[Neu5Ac(a2-3)Gal(b1-4)GlcNAc(b1-2)Man(a1-6)]Man(b1-4)GlcNAc(b1-4)GlcNAc
# Outline: as §1
# [39] = target: Neu5Ac(a2-6)Gal(b1-4)GlcNAc(b1-2)[Neu5Ac(a2-6)Gal(b1-4)GlcNAc(b1-6)]Man(a1-6)[Neu5Ac(a2-6)Gal(b1-4)GlcNAc(b1-2)Man(a1-3)][GlcNAc(b1-4)]Man(b1-4)GlcNAc(b1-4)GlcNAc
# Outline: as §1
# [40] = target: Neu5Ac(a2-6)Gal(b1-4)GlcNAc(b1-3)Gal(b1-4)GlcNAc
# Outline: as §1
# [41] = target: Neu5Ac(a2-6)Gal(b1-4)GlcNAc(b1-6)[Gal(b1-3)]GalNAc
# Outline: as §1
# [42] = target: Neu5Ac9Ac(a2-3)Gal(b1-3)GlcNAc
# Outline: as §1
binder,measurement,setting,value
B1,glycan array binding signal (z-score),Fuc(a1-2)Gal(b1-3)GalNAc,-0.147
same,glycan array binding signal (z-score),[1],-0.072
same,glycan array binding signal (z-score),[2],-0.208
same,glycan array binding signal (z-score),[3],-0.266
same,glycan array binding signal (z-score),[4],-0.273
same,glycan array binding signal (z-score),[5],-0.199
same,glycan array binding signal (z-score),[6],-0.15
same,glycan array binding signal (z-score),[7],3.24
same,glycan array binding signal (z-score),[8],-0.048
same,glycan array binding signal (z-score),Gal(a1-2)Gal,-0.111
same,glycan array binding signal (z-score),[9],-0.268
same,glycan array binding signal (z-score),Gal(a1-3)Gal(b1-4)GlcNAc,-0.14
same,glycan array binding signal (z-score),[10],8.24
same,glycan array binding signal (z-score),Gal(a1-4)GlcNAc,0.265
same,glycan array binding signal (z-score),Gal(b1-3)GalNAc(b1-3)Gal,-0.309
same,glycan array binding signal (z-score),[11],-0.195
same,glycan array binding signal (z-score),[12],-0.147
same,glycan array binding signal (z-score),[13],-0.11
same,glycan array binding signal (z-score),[14],-0.171
same,glycan array binding signal (z-score),[15],-0.177
same,glycan array binding signal (z-score),[16],-0.215
same,glycan array binding signal (z-score),[17],-0.136
same,glycan array binding signal (z-score),[18],-0.133
same,glycan array binding signal (z-score),[19],0.044
same,glycan array binding signal (z-score),GalNAc(a1-3)Gal,5.43
same,glycan array binding signal (z-score),GalNAc(a1-3)GalNAc,4.56
same,glycan array binding signal (z-score),[20],6.24
same,glycan array binding signal (z-score),[21],5.16
same,glycan array binding signal (z-score),GalNAc(b1-4)GlcNAc,4.2
same,glycan array binding signal (z-score),[22],5.15
same,glycan array binding signal (z-score),[23],4.99
same,glycan array binding signal (z-score),[24],9.42
same,glycan array binding signal (z-score),GalNAc(b1-4)GlcNAc6S,3.67
same,glycan array binding signal (z-score),[25],-0.155
same,glycan array binding signal (z-score),[26],0.118
same,glycan array binding signal (z-score),[27],-0.163
same,glycan array binding signal (z-score),[28],-0.268
same,glycan array binding signal (z-score),[29],-0.143
same,glycan array binding signal (z-score),[30],-0.158
same,glycan array binding signal (z-score),[31],0.046
same,glycan array binding signal (z-score),[32],-0.108
same,glycan array binding signal (z-score),[33],-0.255
same,glycan array binding signal (z-score),[34],-0.167
same,glycan array binding signal (z-score),[35],-0.223
same,glycan array binding signal (z-score),[36],-0.392
same,glycan array binding signal (z-score),[37],-0.2
same,glycan array binding signal (z-score),[38],-0.112
same,glycan array binding signal (z-score),[39],-0.344
same,glycan array binding signal (z-score),[40],-0.103
same,glycan array binding signal (z-score),[41],-0.269
same,glycan array binding signal (z-score),[42],-0.185
